The assay has as its target T1, C-reactive protein (native CRP from human fluid) (human, UniProt P02741 19-224).
T1 construct: C-reactive protein, human, native protein from human fluid; The SPR methods say only 'human CRP'; the source (Sigma-Aldrich) is named in the methods of the phagocytosis assay; also called human CRP; native human CRP; source: bought: Sigma-Aldrich (native CRP from human fluid)
T1 sequence (looked up): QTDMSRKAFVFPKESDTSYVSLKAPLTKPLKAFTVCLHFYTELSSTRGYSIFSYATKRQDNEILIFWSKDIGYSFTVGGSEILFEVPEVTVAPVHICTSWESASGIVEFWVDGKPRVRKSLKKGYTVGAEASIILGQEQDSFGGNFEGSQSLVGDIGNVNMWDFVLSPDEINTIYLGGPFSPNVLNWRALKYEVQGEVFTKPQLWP
Briefly: SPR; IBIS MX96 array; C-terminally biotinylated FcRs spotted at different densities (100–1 nM) on one SensEye G-streptavidin sensor, blocked with biotinylated BSA; CRP injected in 2-fold dilutions from 0.98 to 2,000 nM in 20 mM Tris, 280 mM NaCl, 5 mM CaCl2, pH 8.0; KD by equilibrium fitting to Rmax = 500. The note with it: both partners purified. (Surface plasmon resonance follows binding to a sensor surface in real time, without labels.)

B1: FcγRIIIa-V158, human, C-terminally biotinylated (receptor)
chain: not shown
modifications: biotin, C-terminal
notes: FcγRIIIa (CD16a), human, polymorphic variant V158 (p.176Val), bought recombinant biotinylated protein; also called FcγRIIIa-p.176Val; source: bought: Sino Biological
Take B1: the binding result is recorded as “binds”.

Values taken from publication PMC8006934, “C-Reactive Protein Enhances IgG-Mediated Cellular Destruction Through IgG-Fc Receptors in vitro” (Frontiers in Immunology, 2021).
